Data from the supplement of paper PMC6206098.
± gives the uncertainty stated by the source. The sequences are guide strands of siRNAs; only the seed at positions 2 to 7 varies.

Tests used:
3LL = assay: cell viability relative to siNT1 control; higher = less toxic; conditions: concentration: 10 nM; 96 h; Mus musculus;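 also: Luminescence-based viability of cells reverse transfected in 384-well plates with lipid-complexed siRNAs built on a non-toxic 19mer backbone whose passenger strand carries 2′-O-methyl groups at positions 1 and 2, triplicates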
M565 = assay: cell viability relative to lipid-only control; HeyA8 human ovarian and H460 human lung cancer; M565 mouse liver and 3LL mouse lung cancer; siNT1 is a non-toxic control siRNA; higher = less toxic; conditions: concentration: 10 nM; 96 h; Mus musculus
Method: (§1)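 Arrayed screen of 4096 siRNA duplexes, each carrying one of all possible 6mer seeds at guide-strand positions 2-7 in a fixed neutral 19mer scaffold (constant flanks: U at position 1, then ACAUGUAAACCA, plus a 3' AA overhang). The passenger strand is 2'-O-methylated at positions 1-2 so only the guide strand loads into RISC. Duplexes were reverse-transfected at 10 nM with RNAiMAX in triplicate in 384-well plates; viability was read by CellTiter-Glo ATP content 96 h after transfection. Values are % viability normalised to lipid-only wells (HeyA8, H460, M565) or to siNT1 (3LL).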

HeyA8 = assay: as above; conditions: concentration: 10 nM; 96 h; Homo sapiens
Method: as §1

H460 = assay: as above; conditions: concentration: 10 nM; 96 h; Homo sapiens
Method: as §1
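For cell viability relative to lipid-only control in this document: reverse lipid transfection in 384-well plates, in triplicate, of duplexes on a non-toxic 19mer backbone with passenger strand 2′-O-methylated at positions 1 and 2, luminescence viability read-out.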

Row | Sequence | cell viability (3LL) [%] | cell viability (M565) [%] | cell viability (HeyA8) [%] | cell viability (H460) [%]
1 | UCCCUUUACAUGUAAACCAAA | 122 ± 34 | 98.2 ± 15 | 66.9 ± 4 | 61.6 ± 8
2 | UCCGAAAACAUGUAAACCAAA | 104 ± 27 | 78 ± 8.9 | 96.3 ± 16 | 79.5 ± 14
3 | UCCGAACACAUGUAAACCAAA | 97.9 ± 15 | 75 ± 11 | 70 ± 2.4 | 70.5 ± 4.4
4 | UCCGAAGACAUGUAAACCAAA | 105 ± 17 | 92.2 ± 7.2 | 85.9 ± 3.6 | 94.1 ± 12
5 | UCCGAAUACAUGUAAACCAAA | 95.9 ± 27 | 79.1 ± 18 | 83.7 ± 8.4 | 80.5 ± 21
6 | UCCGACAACAUGUAAACCAAA | 110 ± 20 | 87.2 ± 8.5 | 83.5 ± 2.9 | 73.2 ± 19
7 | UCCGACCACAUGUAAACCAAA | 48.1 ± 9.4 | 17.2 ± 3.5 | 5.47 ± 0.31 | 38.9 ± 3.2
8 | UCCGACGACAUGUAAACCAAA | 111 ± 18 | 80.1 ± 14 | 82.7 ± 2.4 | 68.1 ± 5.9
9 | UCCGACUACAUGUAAACCAAA | 101 ± 29 | 68.3 ± 20 | 71.2 ± 9.8 | 58.5 ± 17
10 | UCCGAGAACAUGUAAACCAAA | 108 ± 24 | 75.7 ± 17 | 79 ± 5.5 | 55.2 ± 2.1
11 | UCCGAGCACAUGUAAACCAAA | 51.1 ± 10 | 16.7 ± 2.3 | 34.2 ± 3.3 | 55.1 ± 4.4
12 | UCCGAGGACAUGUAAACCAAA | 88 ± 17 | 78.5 ± 13 | 62.4 ± 7.6 | 50.5 ± 4.5
13 | UCCGAGUACAUGUAAACCAAA | 93.8 ± 20 | 49.5 ± 7.2 | 81.5 ± 4.5 | 63.4 ± 8.6
14 | UCCGAUAACAUGUAAACCAAA | 102 ± 4.6 | 64.6 ± 13 | 86.8 ± 5.6 | 67.8 ± 19
15 | UCCGAUCACAUGUAAACCAAA | 89.3 ± 30 | 48.2 ± 12 | 66.9 ± 6 | 46.5 ± 1.4
16 | UCCGAUGACAUGUAAACCAAA | 101 ± 23 | 66.2 ± 14 | 88.5 ± 9.2 | 65.4 ± 19
17 | UCCGAUUACAUGUAAACCAAA | 86.9 ± 22 | 91.7 ± 19 | 79.2 ± 8.9 | 76.7 ± 14
18 | UCCGCAAACAUGUAAACCAAA | 106 ± 23 | 79.5 ± 18 | 79.8 ± 3.3 | 62.8 ± 3.2
19 | UCCGCACACAUGUAAACCAAA | 91.4 ± 21 | 59 ± 12 | 75.4 ± 10 | 57.6 ± 4.9

Row | Sequence | cell viability (3LL) [%] | cell viability (M565) [%] | cell viability (HeyA8) [%] | cell viability (H460) [%]
20 | UCCGCAGACAUGUAAACCAAA | 102 ± 29 | 37.3 ± 9.9 | 78 ± 2.3 | 58.8 ± 4.5
21 | UCCGCAUACAUGUAAACCAAA | 99.4 ± 23 | 52.7 ± 14 | 64.6 ± 7.5 | 65 ± 15
22 | UCCGCCAACAUGUAAACCAAA | 103 ± 11 | 48.4 ± 15 | 75 ± 8.2 | 66.4 ± 10
23 | UCCGCCCACAUGUAAACCAAA | 13.3 ± 5.5 | 19.7 ± 0.9 | 23 ± 6.3 | 51.2 ± 5.8
24 | UCCGCCGACAUGUAAACCAAA | 101 ± 13 | 65.9 ± 9.7 | 82.8 ± 5.2 | 76.8 ± 11
25 | UCCGCCUACAUGUAAACCAAA | 86.3 ± 23 | 42.6 ± 9.4 | 66.7 ± 8.1 | 60 ± 3.4
26 | UCCGCGAACAUGUAAACCAAA | 105 ± 18 | 70.4 ± 12 | 75.5 ± 5.7 | 67.5 ± 5.8
27 | UCCGCGCACAUGUAAACCAAA | 87.5 ± 6.9 | 35.1 ± 12 | 59.3 ± 5.8 | 55.7 ± 8.2
28 | UCCGCGGACAUGUAAACCAAA | 93.3 ± 16 | 70.2 ± 19 | 63.2 ± 8.9 | 71.2 ± 16
29 | UCCGCGUACAUGUAAACCAAA | 110 ± 22 | 52.8 ± 6.7 | 69 ± 6.2 | 65.9 ± 7.5
30 | UCCGCUAACAUGUAAACCAAA | 115 ± 26 | 90.2 ± 12 | 88.9 ± 7.4 | 71.4 ± 12
31 | UCCGCUCACAUGUAAACCAAA | 80 ± 13 | 92.4 ± 14 | 23.1 ± 2.4 | 49.1 ± 5.9
32 | UCCGCUGACAUGUAAACCAAA | 107 ± 18 | 80.8 ± 8.5 | 79.6 ± 10 | 93.3 ± 21
33 | UCCGCUUACAUGUAAACCAAA | 115 ± 21 | 76.9 ± 11 | 64.9 ± 5.7 | 72.8 ± 17
34 | UCCGGAAACAUGUAAACCAAA | 113 ± 18 | 82.3 ± 18 | 84.3 ± 11 | 77.9 ± 25
35 | UCCGGACACAUGUAAACCAAA | 46.7 ± 14 | 20.3 ± 3.4 | 38.7 ± 3.9 | 35.1 ± 3.5
36 | UCCGGAGACAUGUAAACCAAA | 104 ± 15 | 60.8 ± 11 | 74 ± 12 | 61.7 ± 11
37 | UCCGGAUACAUGUAAACCAAA | 87.9 ± 26 | 70.4 ± 13 | 64.6 ± 7 | 68.4 ± 16
38 | UCCGGCAACAUGUAAACCAAA | 109 ± 13 | 89 ± 17 | 56 ± 5.2 | 61.8 ± 6.2

Row | Sequence | cell viability (3LL) [%] | cell viability (M565) [%] | cell viability (HeyA8) [%] | cell viability (H460) [%]
39 | UCCGGCCACAUGUAAACCAAA | 12.6 ± 4 | 24.1 ± 6.6 | 12 ± 1.2 | 34.3 ± 5
40 | UCCGGCGACAUGUAAACCAAA | 102 ± 26 | 59 ± 12 | 51.4 ± 6.4 | 51.5 ± 4.5
41 | UCCGGCUACAUGUAAACCAAA | 63.2 ± 14 | 51.4 ± 12 | 20.8 ± 2.8 | 43.2 ± 6.3
42 | UCCGGGAACAUGUAAACCAAA | 102 ± 15 | 61.7 ± 10 | 78.3 ± 5.7 | 63.3 ± 1.6
43 | UCCGGGCACAUGUAAACCAAA | 9.35 ± 1.8 | 6.22 ± 1 | 8.45 ± 1.2 | 36.4 ± 4.9
44 | UCCGGGGACAUGUAAACCAAA | 56.7 ± 9.7 | 58.8 ± 3.6 | 40.5 ± 4.6 | 54.6 ± 2.8
45 | UCCGGGUACAUGUAAACCAAA | 26 ± 5.2 | 16.8 ± 4 | 36.4 ± 2.2 | 46.9 ± 4.4
46 | UCCGGUAACAUGUAAACCAAA | 103 ± 32 | 69.1 ± 16 | 79 ± 2.4 | 67.1 ± 12
47 | UCCGGUCACAUGUAAACCAAA | 56.6 ± 12 | 42.7 ± 13 | 13.6 ± 1.5 | 31.8 ± 4.8
48 | UCCGGUGACAUGUAAACCAAA | 103 ± 29 | 49.7 ± 6.7 | 74.5 ± 16 | 56.1 ± 9.1
49 | UCCGGUUACAUGUAAACCAAA | 101 ± 27 | 68.4 ± 17 | 45.8 ± 3.9 | 41.8 ± 5.2
50 | UCCGUAAACAUGUAAACCAAA | 106 ± 20 | 77.7 ± 15 | 87.1 ± 3.1 | 60.9 ± 10
51 | UCCGUACACAUGUAAACCAAA | 100 ± 33 | 94.4 ± 23 | 54.3 ± 3.9 | 56.5 ± 10
52 | UCCGUAGACAUGUAAACCAAA | 106 ± 17 | 69.7 ± 6.8 | 77.8 ± 7.5 | 59 ± 4.1
53 | UCCGUAUACAUGUAAACCAAA | 106 ± 25 | 90.9 ± 23 | 74.7 ± 2.6 | 61.4 ± 15
54 | UCCGUCAACAUGUAAACCAAA | 99.4 ± 29 | 44.1 ± 10 | 84.1 ± 8 | 55 ± 10
55 | UCCGUCCACAUGUAAACCAAA | 24.3 ± 4.5 | 14.7 ± 0.19 | 13.1 ± 1.7 | 23.2 ± 3.1
56 | UCCGUCGACAUGUAAACCAAA | 101 ± 33 | 104 ± 25 | 83.9 ± 7.7 | 65.1 ± 14
57 | UCCGUCUACAUGUAAACCAAA | 83.7 ± 17 | 17.2 ± 0.27 | 57.8 ± 4.2 | 48.9 ± 9
